Source: a protein production outcome set (Wang et al. 2014)

Test: label from the status in PepcDB records

Sequence	protein production
MEEPGAQCAPPPPAGSETWVPQANLSSAPSQNCSAKDYIYQDSISLPWKVLLVMLLALITLATTLSNAFVIATVYRTRKLHTPANYLIASLAVTDLLVSILVMPISTMYTVTGRWTLGQVVCDFWLSSDITCCTASILHLCVIALDRYWAITDAVEYSAKRTPKRAAVMIALVWVFSISISLPPFFWRQAKAEEEVSECVVNTDHILYTVYSTVGAFYFPTLLLIALYGRIYVEARSRILKQTPNRTGKRLTRAQLITDSPGSTSSVTSINSRVPDVPSESGSPVYVNQVKVRVSDALLEKKKLMAARERKATKTLGIILGAFIVCWLPFFIISLVMPICKDACWFHLAIFDFFTWLGYLNSLINPIIYTMSNEDFKQAFHKLIRFKCTS	failed
MPFPNCSAPSTVVATAVGVLLGLECGLGLLGNAVALWTFLFRVRVWKPYAVYLLNLALADLLLAACLPFLAAFYLSLQAWHLGRVGCWALHFLLDLSRSVGMAFLAAVALDRYLRVVHPRLKVNLLSPQAALGVSGLVWLLMVALTCPGLLISEAAQNSTRCHSFYSRADGSFSIIWQEALSCLQFVLPFGLIVFCNAGIIRALQKRLREPEKQPKLQRAQALVTLVVVLFALCFLPCFLARVLMHIFQNLGSCRALCAVAHTSDVTGSLTYLHSVLNPVVYCFSSPTFRSSYRRVFHTLRGKGQAAEPPDFNPRDSYS	failed
MSIQKTYLEGDFVFPVSSSSFLRTLLEPQLGSALLTAMNASCCLPSVQPTLPNGSEHLQAPFFSNQSSSAFCEQVFIKPEVFLSLGIVSLLENILVILAVVRNGNLHSPMYFFLCSLAVADMLVSVSNALETIMIAIVHSDYLTFEDQFIQHMDNIFDSMICISLVASICNLLAIAVDRYVTIFYALRYHSIMTVRKALTLIVAIWVCCGVCGVVFIVYSESKMVIVCLITMFFAMMLLMGTLYVHMFLFARLHVKRIAALPPADGVAPQQHSCMKGAVTITILLGVFIFCWAPFFLHLVLIITCPTNPYCICYTAHFNTYLVLIMCNSVIDPLIYAFRSLELRNTFREILCGCNGMNLG	failed
MSLPNSSCLLEDKMCEGNKTTMASPQLMPLVVVLSTICLVTVGLNLLVLYAVRSERKLHTVGNLYIVSLSVADLIVGAVVMPMNILYLLMSKWSLGRPLCLFWLSMDYVASTASIFSVFILCIDRYRSVQQPLRYLKYRTKTRASATILGAWFLSFLWVIPILGWNHFMQQTSVRREDKCETDFYDVTWFKVMTAIINFYLPTLLMLWFYAKIYKAVRQHCQHRELINRSLPSFSEIKLRPENPKGDAKKPGKESPWEVLKRKPKDAGGGSVLKSPSQTPKEMKSPVVFSQEDDREVDKLYCFPLDIEHMQAAAEGSSRDYVAVNRSHGQLKTDEQGLNTHGASEISEDQMLGDSQSFSRTDSDTTTETAPGKGKLRSGSNTGLDYIKFTWKRLRSHSRQYVSGLHMNRERKAAKQLGFIMAAFILCWIPYFIFFMVIAFCKNCCNEHLHMFTIWLGYINSTLNPLIYPLCNENFKKTFKRILHIRS	failed
MSLSSTVSTLYGEVEPSLLEIAKQIKLLICDVDGVFSDGLIYMGNQGEELKTFHTRDGYGVKALMNAGIEIAIITGRRSQIVENRMKALGISLIYQGQDDKVQAYYDICQKLAIAPEQTGYIGDDLIDWPVMEKVALRVCVADGHPLLAQRANYVTHIKGGHGAVREVCDLILQARNELDVHKGLSLEGHHHHHH	not failed
